Reference: PMC3675359, “GxcC connects Rap and Rac signaling during Dictyostelium development” (BMC Cell Biology, 2013)
Results are given in words; binding and its absence hold for the method and conditions named. For part of these data: Binding seen in cells or lysates may run through a third protein. Some results given as binding are weak or reduced against the parent protein; the word gives no strength. Sequences can lack the tags named with a protein. Blank lines part the entries; values can stand above or below the binder they belong to.

Sequences of proteins named here, by UniProt entry; tags and fusion partners are left off.
UniProt P34149: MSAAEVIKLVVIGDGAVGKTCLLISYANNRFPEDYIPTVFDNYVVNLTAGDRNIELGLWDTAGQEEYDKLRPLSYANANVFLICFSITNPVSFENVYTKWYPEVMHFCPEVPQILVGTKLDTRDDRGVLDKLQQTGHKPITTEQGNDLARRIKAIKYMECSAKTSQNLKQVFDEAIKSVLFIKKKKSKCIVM
UniProt Q9GPS3: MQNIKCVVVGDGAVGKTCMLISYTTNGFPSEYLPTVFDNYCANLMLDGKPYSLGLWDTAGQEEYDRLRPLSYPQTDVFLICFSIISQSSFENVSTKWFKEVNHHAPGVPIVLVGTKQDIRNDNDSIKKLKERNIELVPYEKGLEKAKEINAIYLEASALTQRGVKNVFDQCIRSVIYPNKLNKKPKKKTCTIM
UniProt P18613: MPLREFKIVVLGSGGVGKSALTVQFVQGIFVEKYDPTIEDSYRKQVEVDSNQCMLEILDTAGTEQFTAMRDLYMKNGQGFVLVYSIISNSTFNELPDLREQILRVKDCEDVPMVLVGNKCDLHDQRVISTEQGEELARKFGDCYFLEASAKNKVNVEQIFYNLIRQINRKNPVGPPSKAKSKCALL
UniProt P15064: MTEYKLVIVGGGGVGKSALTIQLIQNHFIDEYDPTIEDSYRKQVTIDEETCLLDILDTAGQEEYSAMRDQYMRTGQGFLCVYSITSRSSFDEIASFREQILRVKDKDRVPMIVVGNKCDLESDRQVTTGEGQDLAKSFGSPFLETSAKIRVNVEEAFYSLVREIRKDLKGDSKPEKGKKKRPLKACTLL

Experiments:
[1] = molecular target: GST-Rac1A (Dictyostelium discoideum) (UniProt P34144); assay: pull-down; purified GST-Rac proteins coupled to GSH beads, incubated with pre-cleared lysate of vegetative GFP-GxcC Dictyostelium cells in the presence of EDTA, 4°C for 1 hour; anti-GFP and anti-GST western blot; only the target purified
[2] = molecular target: GST-RacC (Dictyostelium discoideum) (UniProt P34149); assay: as above
[3] = molecular target: T1, GST-RacE (Dictyostelium discoideum) (UniProt Q23862); assay: as above
T1 sequence: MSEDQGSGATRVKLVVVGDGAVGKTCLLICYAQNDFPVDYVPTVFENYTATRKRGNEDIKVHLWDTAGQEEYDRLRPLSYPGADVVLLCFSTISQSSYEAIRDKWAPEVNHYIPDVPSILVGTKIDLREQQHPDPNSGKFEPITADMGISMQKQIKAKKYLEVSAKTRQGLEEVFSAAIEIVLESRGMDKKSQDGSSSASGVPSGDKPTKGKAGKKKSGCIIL

[4] = molecular target: GST-RacF2 (Dictyostelium discoideum) (UniProt Q9GPS3); assay: as above
[5] = molecular target: T2, GST-RacG (Dictyostelium discoideum) (UniProt Q9GPS0); assay: as above
T2 sequence: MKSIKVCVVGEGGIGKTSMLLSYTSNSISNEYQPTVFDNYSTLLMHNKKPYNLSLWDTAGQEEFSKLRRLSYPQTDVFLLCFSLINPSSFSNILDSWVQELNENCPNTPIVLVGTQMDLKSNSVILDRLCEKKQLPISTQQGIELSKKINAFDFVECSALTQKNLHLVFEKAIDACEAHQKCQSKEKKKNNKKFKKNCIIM

[6] = molecular target: T3, GST-RacL (Dictyostelium discoideum) (UniProt Q9GPQ8); assay: as above
T3 sequence: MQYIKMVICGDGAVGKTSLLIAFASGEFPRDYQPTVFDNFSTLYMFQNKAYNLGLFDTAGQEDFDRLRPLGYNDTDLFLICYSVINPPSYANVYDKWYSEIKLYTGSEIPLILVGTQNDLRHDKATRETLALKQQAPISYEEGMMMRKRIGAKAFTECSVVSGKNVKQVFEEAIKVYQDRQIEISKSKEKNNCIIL

[7] = molecular target: RapA purified from E. coli (loaded with mGppNHp or mGDP) (Dictyostelium discoideum) (UniProt P18613); assay: guanine nucleotide dissociation inhibition (GDI) assay; RapA bound to mGDP instead of mGppNHp, in the presence of GST-ARM; both purified
[8] = molecular target: T4, RasC loaded with mGppNHp (Dictyostelium discoideum) (UniProt P32253); assay: guanine nucleotide dissociation inhibition (GDI) assay; G-protein loaded with mGppNHp incubated with an excess of unlabelled nucleotide; decay of fluorescence (kobs) at varying concentrations of GST-ARM; both purified
T4 sequence: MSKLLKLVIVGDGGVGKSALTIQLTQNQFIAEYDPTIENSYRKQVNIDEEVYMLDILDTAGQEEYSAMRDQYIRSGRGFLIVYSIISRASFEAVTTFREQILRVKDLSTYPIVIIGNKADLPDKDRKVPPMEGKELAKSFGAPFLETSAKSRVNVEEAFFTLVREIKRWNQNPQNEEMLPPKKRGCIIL

[9] = molecular target: RasG loaded with mGppNHp (Dictyostelium discoideum) (UniProt P15064); assay: as above

- binding [1]: binds weakly
- binding [2]: binds weakly
- binding [3]: binds
- binding [4]: binds weakly
- binding [5]: binds
- binding [6]: binds
B1: GFP-GxcC (protein, UniProt Q54P24 1-1215)
chain: MPIQFDAGLEQQVNQFLGDVDDFLTVKTGTTVDKLKSLLNCEEKSISYNAIAFLAFANQAAVNKDASREAGLIKLFLEFCHPSKIITVLPMVKHASMGLMFLANHSDENKKEIGDLKGIDTIFELLRDLLVMIKSPPEDVKKEDIVSSISQSLNLVIFLASLQSNREVMGTVQNFLVLNSLLAYENPQSLDLQLQIQEKALSATNNICMHKENKENCRVAGCIENVLKLLKSTKPSIQDSSLRMLYNMTITDANREAIRRCKGLETLASMLSGQAEALTLLSLKALSNMAVDRQTIEYAVANQESVLQPIYGVFPSSYGQGCSDALLDQVLTVIQNLVSEENLIDTVAKSGIIAKLVGATKGMPLTNTTHQSILVKASCIISALITIEEVQQAAVEQGVITLLVEMIQLPSAEVRREAARALANATPYYDDVRAEIGAQGGVKLCVDLLLQADKELVKQAARALVNLARNTHNEEKLYESKGLEHSIRLINSPEKDLKMLGTKLLVNLSLNEQARIAFCQKGGLSIVVQLLTSSDPELQLQGTKIATNLAISGRNRKVMNEQAPDLIPALKALVNSSVSDIKLQSEVSLNNLAFPYEASYEGLDQMEDAMPIFMQSSQYERDDDDEDDEDEAEKDERRRQEEEELRLAAEKEVEERKRIMQEEVKRIEERRKAEHEKRLQEEQELRQKKEEAEKLRLAQEAMEKLRLEQEAAAAAEAEKIRLAEEQRIIKEKEVAEQERIKQLTEQQKQKEEEEAKIALEKAKKEEAERLEKAEALRLQKEQEERIRKEKEIEAERLRVQEEERLAKERQAEEDRMRAVEEEKLKLMEAEIKQREEDIRRQKIEEEERRKREEQEKKLKDQQDKASQESARLAQEAARAQKRTHIVQEIMQVEVNYVKNLTLMVRKFLHPLAQLSTSKRPLLTPDRITQIFSTIENIQNHNSIFSDGLTSRIKRWLADNKKDHLIIGDIFQKIGGFMQDYSKYINNYNQSIKTYNETKKTNLPFAQFIKKVESDPELNDRELENLLITPVQQLPRYIMLIQDLIRNTHDDHPDYKPLTEALDKIKHITTIINEKKRDAEDAFAMLQIHQQVHGKVPNNFVTPHRKFIREGAVHFGSSSGSFKDKDPIVFLFNDMVMMTIKHPNKPNEYKYRYSCQFSTTTTIEELPSVNNGFIIKSNQWWSFSCSTPQEKTSWMETIQKSLTNLPKESKVLTSKK

- binding [8]: no binding
- binding [9]: no binding
B2: NtermGxcC (aa 1-633), recombinant GST-ARM purified from E. coli (domain or fragment, UniProt Q54P24 1-633)
chain: MPIQFDAGLEQQVNQFLGDVDDFLTVKTGTTVDKLKSLLNCEEKSISYNAIAFLAFANQAAVNKDASREAGLIKLFLEFCHPSKIITVLPMVKHASMGLMFLANHSDENKKEIGDLKGIDTIFELLRDLLVMIKSPPEDVKKEDIVSSISQSLNLVIFLASLQSNREVMGTVQNFLVLNSLLAYENPQSLDLQLQIQEKALSATNNICMHKENKENCRVAGCIENVLKLLKSTKPSIQDSSLRMLYNMTITDANREAIRRCKGLETLASMLSGQAEALTLLSLKALSNMAVDRQTIEYAVANQESVLQPIYGVFPSSYGQGCSDALLDQVLTVIQNLVSEENLIDTVAKSGIIAKLVGATKGMPLTNTTHQSILVKASCIISALITIEEVQQAAVEQGVITLLVEMIQLPSAEVRREAARALANATPYYDDVRAEIGAQGGVKLCVDLLLQADKELVKQAARALVNLARNTHNEEKLYESKGLEHSIRLINSPEKDLKMLGTKLLVNLSLNEQARIAFCQKGGLSIVVQLLTSSDPELQLQGTKIATNLAISGRNRKVMNEQAPDLIPALKALVNSSVSDIKLQSEVSLNNLAFPYEASYEGLDQMEDAMPIFMQSSQYERDDDDEDDEDEAE
- binding [7]: no binding (condition: RapA bound to mGDP)
